Assay results taken from the supplement of paper PMC3334620.
The full ranking holds about 33,000 sequences; the median of “E-score (-0.5 to 0.5)” is about -0.012, and the highest 2% start at about 0.27. Some of the results follow.

What follows are sequences tested against T1, Vhr1 (UniProt P40522) (assay: PBM E-score (8-mer binding enrichment) (E-score (-0.5 to 0.5)); higher = stronger / more preferred TF binding; most listed sequences are background and not binding sites). Settings: protein concentration: 200 nM; construct: GST-full length.
T1 sequence: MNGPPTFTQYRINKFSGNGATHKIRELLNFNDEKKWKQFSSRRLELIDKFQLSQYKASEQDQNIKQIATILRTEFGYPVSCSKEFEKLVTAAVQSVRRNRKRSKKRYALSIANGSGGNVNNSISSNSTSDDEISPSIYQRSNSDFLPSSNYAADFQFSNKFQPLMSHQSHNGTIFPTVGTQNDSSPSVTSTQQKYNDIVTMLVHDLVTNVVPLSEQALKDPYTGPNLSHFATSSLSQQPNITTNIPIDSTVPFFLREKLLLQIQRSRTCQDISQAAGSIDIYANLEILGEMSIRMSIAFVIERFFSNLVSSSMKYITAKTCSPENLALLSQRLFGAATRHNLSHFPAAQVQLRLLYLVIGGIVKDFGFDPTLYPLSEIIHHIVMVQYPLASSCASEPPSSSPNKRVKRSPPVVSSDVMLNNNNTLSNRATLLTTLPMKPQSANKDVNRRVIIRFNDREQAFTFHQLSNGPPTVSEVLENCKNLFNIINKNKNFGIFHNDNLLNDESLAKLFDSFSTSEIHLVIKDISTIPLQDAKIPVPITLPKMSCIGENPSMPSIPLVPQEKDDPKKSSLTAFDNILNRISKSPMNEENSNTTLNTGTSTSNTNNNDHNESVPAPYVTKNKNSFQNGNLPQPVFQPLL
In short: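 Using PURExpress in vitro transcription/translation, GST-tagged yeast transcription factors were made in full-length or DNA-binding-domain form. These were applied at about 100-200 nM to double-stranded universal all-10-mer Agilent arrays, and bound protein was detected with fluorescent anti-GST. Scans were normalised with masliner before the Universal PBM Analysis Suite assigned E-scores to ungapped eight-base words pooled with their reverse complements.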

Sequence	PBM E-score
ACTAAGCT	0.0352
AGAAGCGG	-0.112
CCGTGGGC	-0.0369
AGCCAGTC	0.087
GCTCAGAC	0.0657
AACCCGTT	-0.0686
ACTCGAGT	0.26
CACCCAGC	0.0906
AGAATGAA	-0.0879
TAGTTGGA	0.0597
TCGGCTAA	-0.0416
AGACGGTA	-0.0722
GAAGCTCA	-0.0795
CGCCTCCC	-0.122
AGGCAGCC	-0.0232
AAAACGGG	0.0915
AATTGGGG	-0.139
TACACCGA	0.0677
ATATGCCA	0.168
AACCCGGT	-0.139
GAAAAGGC	-0.102
AACACATA	0.176

Sequence	PBM E-score
GTGCCTGA	-0.0567
TCAACAAA	0.144
ACGCGCAC	0.0131
GAAGAGCA	-0.26
CAAGAGCA	-0.0749
ATCCACCA	0.113
CCACGCAA	-0.0453
CTTGCTTA	-0.0134
CCACCGAC	0.165
AAAGAGAT	-0.169
TACAGATA	0.0424
AATCCTGC	0.00501
ACAACGGT	-0.0617
ACACGGTA	0.179
AAACGATG	-0.0491
TAGCTGCA	-0.18
ATATGGGC	0.0692
GCCTGAGA	-0.0729
AAGAACTC	-0.123
ATGTCATG	0.12
GCAAGCAC	-0.0739
TATACACA	0.155

Sequence	PBM E-score
CGAGACCA	0.0338
CGTCACAA	-0.0394
ATTCGTAA	-0.082
GATACCGC	0.142
ATCATGTA	0.206
CAGTTAGA	-0.187
CTACAAGC	-0.0967
GGTAGCGA	-0.0248
CTCGTTCC	0.0375
ACAAAATG	-0.0165
ATACGCTG	0.103
ATTCTATA	0.0275
TCCTATCA	-0.00908
CATGGGCG	0.204
CTAAGGTC	0.0041
GGACGAGA	-0.0215
AGATCCTG	-0.157
CAGTACCA	0.145
GTTACGCA	-0.0223
CCGCATCA	0.112
CAGTGGAA	-0.0748
CCTTAACC	-0.0868

Sequence	PBM E-score
CGGATACA	0.231
AATTGACG	-0.278
GATTAGGC	-0.0899
ACGATTAC	0.161
CATGGCCA	-0.194
CCAGAGCA	0.0496
ATGATCGC	0.0413
CCCCTCTC	-0.256
AGCGGGAA	0.00142
ATGACACA	0.268
CTTCCTCA	-0.0353
AATTGATA	0.13
CAATCTCA	0.028
CGGCCGCA	0.188
AAACCAGT	0.0233
AACTCCAT	-0.122
GCGGTTCC	0.0087
AAACGCGT	-0.034
GCAGCCAC	0.151
ATACTCCA	0.157
